# Assay results from PubChem BioAssay (NCI).
#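 All cell lines were grown in 96-well plates and treated with compound for 48 hours. Here, GI50 denotes the concentration required for 50% inhibition of growth. TGI: total growth inhibition.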
# Tested on: NCI-H322M lung
# Assay: inhibition of tumour cell growth, NCI panel, 48 h
SMILES,GI50,TGI
COc1ccc2c(c1)c(/C=N/Nc1ccnc3cc(Cl)ccc13)cn2C,0.686 µM,1.82 µM
Cn1ccnc1C(=O)/C=C/C=C/c1ccc(C(=O)Nc2ccc(F)cc2)cc1,8.14 µM,> 33.3 µM
Clc1ccc2oc3c(NCCCn4ccnc4)c4ccccc4nc3c2c1,11.3 µM,> 100 µM
CCNC(=O)N1CCc2cc(OC)c(OCCc3ccc(OC)cc3)cc2C1c1ccc(Cl)cc1C (stereo not drawn),2.02 µM,> 100 µM
